# From the supplement of paper PMC8728848
# This is one part of the list.
# B1: DrGRIFIN (Danio rerio), Q6DGJ1 (protein)
# chain: MTLRFEASCPDGLCPGWSVILKGETPPEASKFEINFLCDRDDRVAFHFNPRFTESDIICNSYMANRWGQEERCNHFPLGVEEPFQIEIYSDNDHFHVYIDKAKVMQYKHRVEDLKTITKLQVVNDVKISSLEITKKLFY
# How the values were obtained:
# Test in all cases: glycan array binding signal (z-score within array); higher = stronger binding
# Conditions in all cases: glycan notation: IUPAC condensed, linker removed
# [1] = molecular target: Fuc(a1-2)Gal6S(b1-3)GlcNAc6S
# How it was run: (§1)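 From the Consortium for Functional Glycomics database, 3228 arrays were curated, keeping only those whose protein sequence was available. Binding is given as a within-array Z-score averaged across arrays sharing a protein sequence and across linkers. Negative Z-scores can be read as non-binding.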
# [2] = molecular target: Fuc(a1-2)Gal6S(b1-4)Glc
# How it was run: as §1
# [3] = molecular target: Fuc(a1-2)Gal6S(b1-4)Glc6S
# How it was run: as §1
# [4] = molecular target: Fuc(a1-2)[Gal(a1-3)]Gal
# How it was run: as §1
# [5] = molecular target: Fuc(a1-2)[Gal(a1-3)]Gal(b1-3)GalNAc
# How it was run: as §1
# [6] = molecular target: Fuc(a1-2)[Gal(a1-3)]Gal(b1-3)GalNAc(b1-3)Gal(a1-4)Gal(b1-4)Glc
# How it was run: as §1
# [7] = molecular target: Fuc(a1-2)[Gal(a1-3)]Gal(b1-3)GlcNAc
# How it was run: as §1
# [8] = molecular target: Fuc(a1-2)[Gal(a1-3)]Gal(b1-3)GlcNAc(b1-2)Man(a1-3)[Fuc(a1-2)[Gal(a1-3)]Gal(b1-3)GlcNAc(b1-2)Man(a1-6)]Man(b1-4)GlcNAc(b1-4)GlcNAc
# How it was run: as §1
# [9] = molecular target: Fuc(a1-2)[Gal(a1-3)]Gal(b1-3)GlcNAc(b1-2)Man(a1-3)[Fuc(a1-2)[Gal(a1-3)]Gal(b1-3)GlcNAc(b1-2)Man(a1-6)]Man(b1-4)GlcNAc(b1-4)[Fuc(a1-6)]GlcNAc
# How it was run: as §1
# [10] = molecular target: Fuc(a1-2)[Gal(a1-3)]Gal(b1-3)GlcNAc(b1-3)GalNAc
# How it was run: as §1
# [11] = molecular target: Fuc(a1-2)[Gal(a1-3)]Gal(b1-3)GlcNAc(b1-6)GalNAc
# How it was run: as §1
# [12] = molecular target: Fuc(a1-2)[Gal(a1-3)]Gal(b1-4)Glc
# How it was run: as §1
# [13] = molecular target: Fuc(a1-2)[Gal(a1-3)]Gal(b1-4)GlcNAc
# How it was run: as §1
# [14] = molecular target: Fuc(a1-2)[Gal(a1-3)]Gal(b1-4)GlcNAc(b1-2)Man
# How it was run: as §1
# [15] = molecular target: Fuc(a1-2)[Gal(a1-3)]Gal(b1-4)GlcNAc(b1-2)Man(a1-3)[Fuc(a1-2)[Gal(a1-3)]Gal(b1-4)GlcNAc(b1-2)Man(a1-6)]Man(b1-4)GlcNAc(b1-4)GlcNAc
# How it was run: as §1
# [16] = molecular target: Fuc(a1-2)[Gal(a1-3)]Gal(b1-4)GlcNAc(b1-2)Man(a1-3)[Fuc(a1-2)[Gal(a1-3)]Gal(b1-4)GlcNAc(b1-2)Man(a1-6)]Man(b1-4)GlcNAc(b1-4)[Fuc(a1-6)]GlcNAc
# How it was run: as §1
# [17] = molecular target: Fuc(a1-2)[Gal(a1-3)]Gal(b1-4)GlcNAc(b1-3)GalNAc
# How it was run: as §1
# [18] = molecular target: Fuc(a1-2)[Gal(a1-3)]Gal(b1-4)GlcNAc(b1-3)[Fuc(a1-2)[Gal(a1-3)]Gal(b1-4)GlcNAc(b1-6)]GalNAc
# How it was run: as §1
# [19] = molecular target: Fuc(a1-2)[Gal(a1-3)]Gal(b1-4)GlcNAc(b1-6)GalNAc
# How it was run: as §1
# [20] = molecular target: Fuc(a1-2)[Gal(a1-3)]Gal(b1-4)[Fuc(a1-3)]Glc
# How it was run: as §1
# [21] = molecular target: Fuc(a1-2)[Gal(a1-3)]Gal(b1-4)[Fuc(a1-3)]GlcNAc
# How it was run: as §1
# [22] = molecular target: Fuc(a1-2)[Gal(a1-3)]Gal(b1-4)[Fuc(a1-3)]GlcNAc(b1-3)GalNAc
# How it was run: as §1
# [23] = molecular target: Fuc(a1-2)[Gal(a1-4)]Gal(b1-4)GlcNAc
# How it was run: as §1
# [24] = molecular target: Fuc(a1-2)[GalNAc(a1-3)]Gal
# How it was run: as §1
# [25] = molecular target: Fuc(a1-2)[GalNAc(a1-3)]Gal(b1-3)GalNAc(a1-3)[Fuc(a1-2)]Gal(b1-4)GlcNAc
# How it was run: as §1
# [26] = molecular target: Fuc(a1-2)[GalNAc(a1-3)]Gal(b1-3)GalNAc(b1-3)Gal(a1-4)Gal(b1-4)Glc
# How it was run: as §1
# [27] = molecular target: Fuc(a1-2)[GalNAc(a1-3)]Gal(b1-3)GlcNAc
# How it was run: as §1
# [28] = molecular target: Fuc(a1-2)[GalNAc(a1-3)]Gal(b1-3)GlcNAc(b1-2)Man(a1-3)[Fuc(a1-2)[GalNAc(a1-3)]Gal(b1-3)GlcNAc(b1-2)Man(a1-6)]Man(b1-4)GlcNAc(b1-4)GlcNAc
# How it was run: as §1
# [29] = molecular target: Fuc(a1-2)[GalNAc(a1-3)]Gal(b1-3)GlcNAc(b1-2)Man(a1-3)[Fuc(a1-2)[GalNAc(a1-3)]Gal(b1-3)GlcNAc(b1-2)Man(a1-6)]Man(b1-4)GlcNAc(b1-4)[Fuc(a1-6)]GlcNAc
# How it was run: as §1
# [30] = molecular target: Fuc(a1-2)[GalNAc(a1-3)]Gal(b1-3)GlcNAc(b1-3)GalNAc
# How it was run: as §1
# [31] = molecular target: Fuc(a1-2)[GalNAc(a1-3)]Gal(b1-3)GlcNAc(b1-6)GalNAc
# How it was run: as §1
# [32] = molecular target: Fuc(a1-2)[GalNAc(a1-3)]Gal(b1-4)Glc
# How it was run: as §1
# [33] = molecular target: Fuc(a1-2)[GalNAc(a1-3)]Gal(b1-4)GlcNAc
# How it was run: as §1
# [34] = molecular target: Fuc(a1-2)[GalNAc(a1-3)]Gal(b1-4)GlcNAc(b1-2)Man
# How it was run: as §1
# [35] = molecular target: Fuc(a1-2)[GalNAc(a1-3)]Gal(b1-4)GlcNAc(b1-2)Man(a1-3)[Fuc(a1-2)[GalNAc(a1-3)]Gal(b1-4)GlcNAc(b1-2)Man(a1-6)]Man(b1-4)GlcNAc(b1-4)GlcNAc
# How it was run: as §1
# [36] = molecular target: Fuc(a1-2)[GalNAc(a1-3)]Gal(b1-4)GlcNAc(b1-2)Man(a1-3)[Fuc(a1-2)[GalNAc(a1-3)]Gal(b1-4)GlcNAc(b1-2)Man(a1-6)]Man(b1-4)GlcNAc(b1-4)[Fuc(a1-6)]GlcNAc
# How it was run: as §1
# [37] = molecular target: Fuc(a1-2)[GalNAc(a1-3)]Gal(b1-4)GlcNAc(b1-3)Gal(b1-4)GlcNAc
# How it was run: as §1
# [38] = molecular target: Fuc(a1-2)[GalNAc(a1-3)]Gal(b1-4)GlcNAc(b1-3)Gal(b1-4)GlcNAc(b1-3)Gal(b1-4)GlcNAc
# How it was run: as §1
# [39] = molecular target: Fuc(a1-2)[GalNAc(a1-3)]Gal(b1-4)GlcNAc(b1-3)GalNAc
# How it was run: as §1
# [40] = molecular target: Fuc(a1-2)[GalNAc(a1-3)]Gal(b1-4)GlcNAc(b1-3)[Fuc(a1-2)[GalNAc(a1-3)]Gal(b1-4)GlcNAc(b1-6)]GalNAc
# How it was run: as §1
# [41] = molecular target: Fuc(a1-2)[GalNAc(a1-3)]Gal(b1-4)GlcNAc(b1-6)GalNAc
# How it was run: as §1
# [42] = molecular target: Fuc(a1-2)[GalNAc(a1-3)]Gal(b1-4)[Fuc(a1-3)]GlcNAc
# How it was run: as §1
# [43] = molecular target: Fuc(a1-2)[GalNAc(a1-3)]Gal(b1-4)[Fuc(a1-3)]GlcNAc(b1-3)GalNAc
# How it was run: as §1
# [44] = molecular target: Fuc(a1-2)[GalNAc(a1-4)]Gal(b1-4)GlcNAc
# How it was run: as §1
# [45] = molecular target: Fuc(a1-2)[GalNAc(b1-3)]Gal
# How it was run: as §1
binder,measurement,setting,value
B1,glycan array binding signal (z-score),[1],-0.187
same,glycan array binding signal (z-score),[2],-0.171
same,glycan array binding signal (z-score),[3],-0.069
same,glycan array binding signal (z-score),[4],-0.199
same,glycan array binding signal (z-score),[5],-0.115
same,glycan array binding signal (z-score),[6],-0.166
same,glycan array binding signal (z-score),[7],5.95
same,glycan array binding signal (z-score),[8],10.6
same,glycan array binding signal (z-score),[9],3.28
same,glycan array binding signal (z-score),[10],5.36
same,glycan array binding signal (z-score),[11],6.96
same,glycan array binding signal (z-score),[12],6.1
same,glycan array binding signal (z-score),[13],6.44
same,glycan array binding signal (z-score),[14],9.46
same,glycan array binding signal (z-score),[15],4.9
same,glycan array binding signal (z-score),[16],5.59
same,glycan array binding signal (z-score),[17],4.81
same,glycan array binding signal (z-score),[18],6.36
same,glycan array binding signal (z-score),[19],-0.151
same,glycan array binding signal (z-score),[20],-0.181
same,glycan array binding signal (z-score),[21],-0.147
same,glycan array binding signal (z-score),[22],-0.062
same,glycan array binding signal (z-score),[23],-0.139
same,glycan array binding signal (z-score),[24],-0.172
same,glycan array binding signal (z-score),[25],-0.151
same,glycan array binding signal (z-score),[26],-0.143
same,glycan array binding signal (z-score),[27],-0.194
same,glycan array binding signal (z-score),[28],-0.108
same,glycan array binding signal (z-score),[29],-0.149
same,glycan array binding signal (z-score),[30],-0.155
same,glycan array binding signal (z-score),[31],-0.113
same,glycan array binding signal (z-score),[32],-0.127
same,glycan array binding signal (z-score),[33],-0.191
same,glycan array binding signal (z-score),[34],-0.194
same,glycan array binding signal (z-score),[35],-0.08
same,glycan array binding signal (z-score),[36],-0.158
same,glycan array binding signal (z-score),[37],-0.171
same,glycan array binding signal (z-score),[38],-0.163
same,glycan array binding signal (z-score),[39],-0.066
same,glycan array binding signal (z-score),[40],-0.185
same,glycan array binding signal (z-score),[41],-0.23
same,glycan array binding signal (z-score),[42],-0.173
same,glycan array binding signal (z-score),[43],-0.101
same,glycan array binding signal (z-score),[44],-0.199
same,glycan array binding signal (z-score),[45],-0.177
